From publication PMC4336329 (PLoS ONE, 2015)
Among all 310,000 compounds or so, about 14,000 (4.5%) showed an effect of 50% or more. The effect is printed as a negative number. The list shows a part of the results.

target: human ether-à-go-go-related gene (hERG) potassium channel (human, UniProt Q12809); assay: primary screen, population patch clamp on CHO cells stably expressing hERG
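Also: peak tail current of the secondary pulse compared with the same well before compound.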

human ether-à-go-go-related gene (hERG) potassium channel, sequence (Q12809 whole entry, looked up): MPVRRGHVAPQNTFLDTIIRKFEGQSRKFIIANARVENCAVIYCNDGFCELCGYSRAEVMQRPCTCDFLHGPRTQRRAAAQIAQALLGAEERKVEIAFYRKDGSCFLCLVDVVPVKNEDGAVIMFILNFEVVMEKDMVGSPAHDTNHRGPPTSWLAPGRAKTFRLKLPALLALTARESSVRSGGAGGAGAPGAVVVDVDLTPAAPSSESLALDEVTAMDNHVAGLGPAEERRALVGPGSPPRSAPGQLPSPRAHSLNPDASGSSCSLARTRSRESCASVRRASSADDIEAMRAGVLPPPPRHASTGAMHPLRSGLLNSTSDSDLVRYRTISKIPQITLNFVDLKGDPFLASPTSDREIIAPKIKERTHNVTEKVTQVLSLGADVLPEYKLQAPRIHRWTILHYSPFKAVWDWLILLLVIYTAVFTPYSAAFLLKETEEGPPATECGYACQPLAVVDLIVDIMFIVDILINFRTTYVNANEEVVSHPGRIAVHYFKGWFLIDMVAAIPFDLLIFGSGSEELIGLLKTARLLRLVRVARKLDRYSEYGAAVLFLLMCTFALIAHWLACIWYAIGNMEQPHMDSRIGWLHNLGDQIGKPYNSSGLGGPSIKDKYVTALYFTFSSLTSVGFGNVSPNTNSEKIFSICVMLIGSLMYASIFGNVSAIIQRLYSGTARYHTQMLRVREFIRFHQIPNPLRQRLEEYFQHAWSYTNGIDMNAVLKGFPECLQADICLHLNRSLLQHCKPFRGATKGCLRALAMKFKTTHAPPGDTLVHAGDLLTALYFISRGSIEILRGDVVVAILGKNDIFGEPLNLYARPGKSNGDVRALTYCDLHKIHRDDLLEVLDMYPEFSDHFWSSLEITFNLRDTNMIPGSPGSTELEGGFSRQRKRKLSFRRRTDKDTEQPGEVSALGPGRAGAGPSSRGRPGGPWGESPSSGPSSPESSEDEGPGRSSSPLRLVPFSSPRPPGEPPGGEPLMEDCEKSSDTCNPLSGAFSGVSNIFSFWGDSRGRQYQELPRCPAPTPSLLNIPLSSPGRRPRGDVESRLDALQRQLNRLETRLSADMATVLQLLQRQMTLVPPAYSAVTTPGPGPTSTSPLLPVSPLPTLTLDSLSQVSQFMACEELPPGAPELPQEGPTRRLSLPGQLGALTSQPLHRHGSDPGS

Compound | hERG current change (%, negative = inhibition) at 10uM [%]
COC(=O)C1=C(c2cccc(OCc3ccccc3)c2)C[C@@H]2CC[C@H]1N2C(=O)NCc1ccccc1OC | 12.6
O=C(CSc1nnc(Cc2ccc(Cl)cc2)o1)Nc1ccccc1 | 8.75
CCN1C(=O)c2ccccc2Sc2ccc(C(=O)N3CCC4(CC3)OCCO4)cc21 | -3.07
Cc1sc(NC(=O)CN2CCCC2)nc1-c1ccc2c(c1)CCN2C(=O)c1cccc(F)c1 | 4.33
CC(C)CN(C(=O)CN(C)S(=O)(=O)c1ccc(Cl)cc1)C1CCS(=O)(=O)C1 (centres unmarked) | -34.3
Cc1ccc(C(=O)N[C@H](C(=O)Nc2sccc2C(N)=O)C(C)C)cc1 | 5.47
COc1ccc(CCNC(=O)c2c(-c3ccccc3)noc2C)cc1OC | 0.45
COc1ccc(N2CCN(C(=O)CCCn3c(=O)c4cccn4c4cccnc43)CC2)cc1 | -2.97
O=C(NCc1ccco1)c1nc(-c2ccccc2)n(-c2ccccc2)n1 | -17.8
S=c1[nH]nc(COc2ccc(Cl)cc2)n1Cc1ccco1 | 7.78
Cc1nc2ccc(C(=O)N3CCSCC3)cc2s1 | 7.13
CC(C)NC(=S)NC1(C)CCS(=O)(=O)C1 (centres unmarked) | 15.2
CCN(CC)c1ccc(NC(=O)c2cc3ccccc3o2)c(C)c1 | 8.99
CCOC(=O)c1c(C)n(-c2ccc(C)cc2)c2ccc(OCC(O)CNCCCO)cc12.Cl (centres unmarked) | -36.3
Cc1nc(N)sc1C(=O)N/N=C/c1ccc([N+](=O)[O-])cc1 | 2.89
Cl.Nc1nc2nc[nH]c2c(=O)[nH]1 | 17.6
COc1ccccc1Nc1nc(N)nc(CN(C)C2CCCCC2)n1 | -35.8
CCOC(=O)c1ccc(N2C(=O)CC(N3CCC(O)(c4ccc(Br)cc4)CC3)C2=O)cc1 (centres unmarked) | -21.5
CCN(CC)CCCNC(=O)c1cc2c(-c3ccc(Cl)cc3)nn(C)c2s1 | -59.9
Cc1c(S(=O)(=O)c2ccccn2)c(N)n(Cc2ccccc2)c1C | 0.158
COc1ccc(C(=O)n2nc(C#N)c(C#N)c2N)cc1 | 16.2
COc1cccc(C(=O)Nc2nc(-c3ccccc3)c(-c3ccccc3)o2)c1 | -3.53

Compound | hERG current change (%, negative = inhibition) at 10uM [%]
COc1cccc(NC(=O)Cn2c3ccc(F)cc3c3nc4n(c(=O)c32)CCCS4)c1 | 13.2
CC[C@H](C)[C@@H](C(=O)N1CCNCC1)n1cc([C@@H](N)CO)nn1.Cl | 3.65
COc1ccccc1N1CCN(C(=O)CSc2nc(-c3ccccc3)cc(=O)[nH]2)CC1 | 9.2
O=C(NCCSc1ccccc1)c1ccc(Br)cc1 | 13.5
CCC(c1nnc(SCC(=O)Nc2cc(Cl)ccc2C#N)n1C1CCCCC1)N(C)C (centres unmarked) | -23
O=C(c1c[nH]c(=O)n(-c2ccccc2)c1=O)N1CCc2ccccc21 | 13.3
Cc1ccc(NC(=O)/C=C/c2cccc([N+](=O)[O-])c2)nc1 | 13.7
O=C1CC(c2ccco2)CC(O)=C1C=Nc1ccccc1-c1ccccc1 (centres unmarked) | 13.2
[N-]=C=C1C(=S)NC(=O)[C@H]([n+]2ccccc2)[C@H]1c1ccc(Cl)cc1 | 15.9
O=S(=O)(N/N=C/c1ccc2c(c1)OCCO2)c1ccc(Cl)cc1 | -5.58
COc1ccccc1CNC(=O)C(=O)NCCC1CCCCN1S(=O)(=O)c1ccccc1 (centres unmarked) | 9.87
O=C(c1cc2cc(F)ccc2[nH]1)N1CCN(Cc2ccc3c(c2)OCO3)CC1 | -0.31
O=C(Nc1cccnc1)c1cccc(NC(=O)c2ccco2)c1 | -9.23
COCCNC(=O)Cn1nc(C(F)(F)F)c(Br)c1C | -4.61
COC(=O)CNC(=O)Cn1cnc2sc(C)c(S(=O)(=O)N3CCN(c4ccccc4OC)CC3)c2c1=O | 21.8
CC(=O)Nc1ccc(NC(=O)C2CCCN(c3ncccn3)C2)cc1 (centres unmarked) | 2.63
CC1CCCCN1CC(=O)c1c(N)n(Cc2ccccc2)c(=O)n(C)c1=O (centres unmarked) | -35.9
O=C(Cn1nnc(-c2ccc3c(c2)OCO3)n1)NCc1ccco1 | 3
Cc1oc(=O)c(NC(=O)c2cccc(Cl)c2)cc1C(=O)c1ccccc1 | 0.426
O=S(=O)(c1ccc2ccccc2c1)N1CCOCC1 | 5.04
CCN(Cc1ccccc1)C(=O)COc1cc(=O)n(CC)c2ccccc12 | -2.46
N=c1c2c(-c3ccccc3)c(-c3ccccc3)oc2ncn1Cc1ccco1 | 0.861

Compound | hERG current change (%, negative = inhibition) at 10uM [%]
CC(C)(C)NC(=O)C1CCN(S(=O)(=O)c2cccc3nsnc23)CC1 | 1.06
Cc1cc(C)n(Cc2ccc(Cl)cc2Cl)c(=O)c1S(=O)(=O)c1ccccc1 | 14.7
Cc1[nH]c(=O)c(C#N)c(C)c1CCC(=O)NCc1ccc(Cl)cc1 | 14.8
C/C(=N\NC(=O)C(=O)Nc1ccc(C)c(Cl)c1)c1ccncc1 | -16.3
Cc1ccccc1CSc1nc2[nH]ncc2c(=O)[nH]1 | 16.6
CCN(CC)S(=O)(=O)c1ccc(OCC(=O)NC(=O)c2ccccc2OC)c([N+](=O)[O-])c1 | 13.5
C/C(=C\c1ccc(N(C)C)cc1)[N+](=O)[O-] | 1.5
CC1(c2ccc3ccccc3c2)NC(=O)N(CC(=O)N2CCN(Cc3ccccc3)CC2)C1=O (centres unmarked) | -6.05
COc1ccc(-[n+]2c(C)cc(/C=C3\Sc4ccccc4N3C)cc2C)cc1.[I-] | -60.2
C#CCOCCOCCOCCNc1nc(N2CCN(C(=O)C([C@@H](C)CC)n3cc(C(N)CO)nn3)CC2)nc(N2CCN(C(=O)C([C@@H](C)CC)n3cc(C(N)COC(=O)C(F)(F)F)nn3)CC2)n1.Cl (some centres unmarked) | 23.8
CCOC(=O)c1ccccc1NC(=O)COC(=O)c1ccccc1C(=O)N(C)c1ccccc1 | -23.5
CC(C)[C@H](NC(=O)C1CCN(C(=O)[C@@H]2CCCN2)CC1)C(=O)NCc1ccc(F)cc1 | 23.1
CN(C(=O)CC(NC(=O)c1ccccc1Cl)c1ccccc1)c1ccccc1 (centres unmarked) | 2.21
COc1ccccc1CNC(=O)C(=O)NCC1OCCN1S(=O)(=O)c1ccc2c(c1)OCCO2 (centres unmarked) | 0.723
CC(=O)C1=C(C)N(CC2CC2)C(=O)N[C@H]1c1cccs1 | 4.67
O=C(Nc1ccccn1)C1CCN(S(=O)(=O)c2ccccc2)CC1 | -14.5
COc1ccc(NC(=O)COc2ccccc2)c(OC)c1 | -27.6
Cc1ccc(C)c(Oc2cc(F)nc(N)n2)c1 | -1.39
FC(F)(F)COc1nc(N2CCCCC2)nc(N2CCNCC2)n1 | -16.9
CC(C)(C)c1ccc(OCCCCCCN2CCNCC2)cc1 | -0.393
COc1cccc(NC(=O)CN(C)C(=O)c2ccccc2OCc2c(C)noc2C)c1 | -0.739
O=C(NNC(=S)Nc1ccc(F)c(Cl)c1)C1CC1 | 12.8

Compound | hERG current change (%, negative = inhibition) at 10uM [%]
CCOCCn1c(N2CCCC2)nc2c1c(=O)n(C)c(=O)n2C | 9.46
C=CCN=C1NN=C(c2cc(C)n(CC=C)c2C)CS1 | 10.9
Cc1cc(=O)oc2c(CN(CC(C)C)CC(C)C)c(O)ccc12 | -2.23
O=S(=O)(c1ccc(Oc2ccc(Br)cc2F)nc1)N1CCCCC1 | -4.6
CCOc1ccc(Br)cc1S(=O)(=O)N1CCC(C(=O)O)CC1 | 27.2
CC1SC(c2ccc(F)cc2)NC1=O (centres unmarked) | 18.8
Cc1nc(N)sc1N=Nc1ccc(Br)cc1 | 7.09
COc1ccc(-c2nnc(SCc3ccccc3)n2N)cc1 | -0.729
O=[N+]([O-])c1ccc(/C=N/N2CCN(c3ccncc3S(=O)(=O)N3CCCCC3)CC2)cc1 | -7.15
CC(C)OC(=O)c1ccc(COC(=O)c2cnccn2)cc1 | -3.48
c1ccc2c(CSc3ncnc4nc[nH]c34)cccc2c1 | 10.6
O=C(O)Cn1c(=O)c2c(c3ccccc31)CCC2 | 11.9
COc1cccc(-n2nnc(S(=O)(=O)c3ccc(C)cc3)c2N)c1 | 10.5
NC1=NC(c2cn[nH]c2-c2ccc(F)cc2)n2c(nc3ccccc32)N1 (centres unmarked) | 26.7
Cc1[nH]c(C)c2c(=O)n(Cc3ccc(Cl)cc3)ncc12 | 6.36
O=c1[nH][nH]c(=S)n1C1CCCCC1 | 24.1
Cc1c(N=Cc2ccc(Br)s2)cccc1[N+](=O)[O-] | -9.07
O=C(Nc1cc(C(F)(F)F)ccc1N1CCCC1)c1cccnc1 | -16
O=C(O)C(=O)O.Oc1ccccc1CN1CCC(C(O)(c2ccccc2)c2ccccc2)CC1 | -68.5
COc1ccc(/C(O)=C2/C(=O)C(=O)N(CCCN3CCOCC3)C2c2ccc(C(C)C)cc2)cc1 (centres unmarked) | 24.6
